Among the data in the RNAGym collection of RNA variant scans (doi:10.1093/nar/gkz1192) are self-cleavage values, retold here.

The source gives no read counts; variants with many changes may rest on few reads.

B1: CPEB3 Ribozyme (parent)
chain: UAACAGGGGGCCACAGCAGAAGCGUUCACGUCGCAGCCCCUGUCAGAUUCUGGUGAAUCUGCGAAUUCUGCUGUAUAUCUC

Variants of B1 are the subject of the data set. Nature of the data set: self-cleavage, relative activity (ratio to wild type); higher = more cleavage; in vitro, sequencing. The method in brief: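 After error-prone PCR and barcoding, CPEB3 ribozyme mutant libraries were transcribed with T7 RNA polymerase at 37°C for 5 hours, then given 15 min with DNase I before an EDTA stop, and they cleaved during both steps. Reverse transcription with template switching preceded Illumina sequencing. Relative activity divides a variant's cleaved/total read fraction by the unmutated ribozyme's. At least 5 reads were required per variant, and three batches were averaged.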
Take A20G U26C G33U U41C A77G: the self-cleavage turned out to be 0.06. Regarding A20G A21G U72A, the self-cleavage is 0.29. Consider A20G U25C U41C U51A G63A U74C, for which the self-cleavage was 0.1. As for A20G G24C U80C, the self-cleavage came to 0.18.

Turning to A20C U25C A56U A65G, the self-cleavage is 0.24. Consider A20G A21G G36A U78C, for which the self-cleavage stood at 0.3.

Turning to A20G A21G A56G U67C U69A, the self-cleavage is 0.14. The same measure for A20G U41C A47G U76C: 0.79; for A20G A28G U48A U60C: 0.18; for A20G U41C A75G: 0.9. The same measure for A20G C32U C38U A47U: 0.07; for A20G U60A U72C: 0.55; for A18U U43C U67A U72A: 0.12.

A20G A21G A35G G42U U67A: the self-cleavage amounted to 0.04. On to A20G U41C U49G U74C, for which the self-cleavage was 0.62. As to A20G U41C C50A G52A U80C, the self-cleavage turned out to be 0.86. As to A20G C32A C37G U54G A65U A77G, the self-cleavage came out at 0.07.

Regarding A20G C34U U41C U43C U48C U69C A77U, the self-cleavage came to 0.05. The figure for A20G A28G C29U is 0.44; for A20G U26C U49C A56G A64G it is 0.21; for G19U A47G A57U U72G it is 0.12. A18U U51A A57G: the self-cleavage amounted to 0.26.

A20G C27G U48C U51A: the self-cleavage was 0.14.

As for A20G A47G A65G, the self-cleavage was 0.42. The figure for A20C U26C C44U is 0.18. In the case of A20G C50U U78C, the self-cleavage amounted to 0.94. With A20G A35U G36A U48C, the self-cleavage was 0.05.

For A20G A28G C50U U60C, the self-cleavage was found to be 0.19.

As to A20G U25C A65G U78C, the self-cleavage was 0.4. As for A20G A28G A35G U72G, the self-cleavage is 0.94. Take G19A U51A U58A U66A: the self-cleavage turned out to be 0.37.

Regarding A20G U25C G61A U72C, the self-cleavage was found to be 0.06.

Consider A20G A45C G52U, for which the self-cleavage was 0.27. Consider A20G G36C U43C U48C A64U U67C, for which the self-cleavage worked out at 0.07. The same measure for A20G A35U U43C A45G U54C: 0.11; for A20G U26C U74C: 0.62. The figure for G19U U31A A35G A77U is 0.24. Turning to A20G U31A C32U U60C A64G, the self-cleavage was found to be 0.27. For A18U U43C G61A, the self-cleavage was found to be 0.12.

G19U U26C U72C: the self-cleavage worked out at 0.4. On to A20C G22A C27A U80A, for which the self-cleavage worked out at 0.15. Take A20G C29G C38U U41G: the self-cleavage is 0.17. For A20G A21G U31C G63A U80A, the self-cleavage is 0.03. A20G U25C C29U U31C G63A: the self-cleavage stood at 0.42. Turning to G19U U26C C37A U54A U69A, the self-cleavage turned out to be 0.08. The figure for A20G U25A A47G A75U is 0.08; for A20G U26A A28G A45G U72C it is 0.09; for A20G U54G A57G it is 0.2. As to A20G G24A U31A U41A A45U U69C, the self-cleavage stood at 0.14. Turning to G19U G22U U26A, the self-cleavage turned out to be 0.2. The same measure for A20G A28G G33U A45G: 0.15.

For the variant A18U U49C U74A, the self-cleavage worked out at 0.23. For the variant G19U A21U A28G U54A U67C U80C, the self-cleavage came out at 0.06.

Take A20G U31A A65G: the self-cleavage stood at 0.32. With A20G U26C A47U U51A, the self-cleavage was determined as 0.08.

In the case of A20G C27U U54A C68A U78C, the self-cleavage was 0.15. Take A20G A21G U43A C44U A57G: the self-cleavage stood at 0.25. Take A20G U25C U67C: the self-cleavage is 0.15. For the variant A20G A28C A57U, the self-cleavage came to 0.18. Regarding A20G U26A A45C U58C C71U, the self-cleavage amounted to 0.03. Take G19A C32U C34U A57G A75U: the self-cleavage was 0.08. As for A20G U54C U78A, the self-cleavage was 0.49.

For the variant A20G G22U A28G U31C A77G, the self-cleavage turned out to be 0.08. For the variant A20C U43C A64U U69A, the self-cleavage is 0.07. The same measure for G19A U41C U49A: 0.08. Consider G19U A21G A57G U67C, for which the self-cleavage came to 0.1. In the case of A20G A64G C81A, the self-cleavage was 0.95. Turning to A20G U31C A64G, the self-cleavage amounted to 0.38.

On to A20C C40A U80C, for which the self-cleavage stood at 0.1.

Take G19A G24A U41C U72A: the self-cleavage amounted to 0.12.

As for A20G A28C U54C A64U A65G, the self-cleavage was determined as 0.36. Take A20G A47G U48A A64G U76G A77G: the self-cleavage amounted to 0.04. A20G U25G U60A: the self-cleavage stood at 0.24. As for A20G U31C U72A, the self-cleavage is 0.14. With A20C U49A U51A A65G U80A, the self-cleavage is 0.04. For the variant A20G A45G A75G, the self-cleavage came out at 0.66. For A18U U54A A57C, the self-cleavage is 0.21.

As for A20G U31C U58C, the self-cleavage was 0.22. As to A18U U49A U72G, the self-cleavage was determined as 0.21.

For the variant G19U U25C U41A, the self-cleavage was 0.14. Regarding A20G C37G U69C, the self-cleavage worked out at 0.2. The figure for A20G C29A U51C U72A is 0.14. As for A20G C34U U67A, the self-cleavage was 0.17. Take A20G A28G U72A: the self-cleavage stood at 0.33. A20G A56G U72C U78C: the self-cleavage came to 0.47. The figure for A20G A65G U69C U72C is 0.51; for A20G C27A U41C U60C it is 0.08; for G19C A28G U43A A57G it is 0.23. As to A20G G24C U67C, the self-cleavage was 0.14. Regarding A20G A57G A65G U66C, the self-cleavage was found to be 0.41.

For the variant G19C A21G A35U U54C, the self-cleavage is 0.19. As to A20C U26C A45U A56G U60C A64G, the self-cleavage stood at 0.07. Consider A18U U54C U72C U80C, for which the self-cleavage is 0.36.

Consider A20G C50U A64G A65G, for which the self-cleavage came out at 0.07.

Regarding G19A A21G U26C U80C, the self-cleavage was 0.38. The same measure for A18U U58C U69C U76C: 0.2; for A20G C29A U41C A45G U48G A65G U80A: 0.07; for A20G A45U A75G: 0.21. For A20G U48C U60C U72C, the self-cleavage was 0.09. The figure for A20C A57G U76C is 0.15; for A20G A28G U51C U69C it is 0.11; for A20G U31C U49C U58A U72A U80A it is 0.06. A20G U31C U60A: the self-cleavage is 0.14. On to A20G U31C U60C, for which the self-cleavage worked out at 0.18. The figure for A20G A35U U43A G52A is 0.69; for A20G C23U A28G U54A A77G it is 0.06; for A18U U49A U60C C79U it is 0.25. Consider A18U U41C U51A, for which the self-cleavage was 0.26. The same measure for G19A A21G U49C U69C: 0.06.

With A20G U26A A57G, the self-cleavage was found to be 0.61. Regarding G19A A20C A21G U41C U51C C62U, the self-cleavage worked out at 0.19.

As to A20G C37G U80C, the self-cleavage stood at 0.83. For A18U U48C G63U U66C C68A U72C, the self-cleavage amounted to 0.15.

In the case of G19C G52U U69C U72C, the self-cleavage is 0.13.

In the case of A20G A28U C37U, the self-cleavage turned out to be 0.34. A20G C23A A56U: the self-cleavage was 0.06. Turning to A20G U43C U74A, the self-cleavage stood at 0.28.

Consider A20G U26A C32A U72C U80A, for which the self-cleavage worked out at 0.22. Consider G19U G42C U48C U76A, for which the self-cleavage is 0.15. The figure for G19C U43C A57G U69C is 0.12; for A20G A64U U78C it is 0.14; for A20G A28G A57G it is 0.28. As to A20G A21G A35G A64G, the self-cleavage came out at 0.52. For A20G U26A U49A, the self-cleavage turned out to be 0.37. For G19C U66C A75G U76C, the self-cleavage came to 0.13. Consider G19A U31A A56U U58C, for which the self-cleavage was 0.09.

For G19C A21U A56U U76A U78C, the self-cleavage was 0.15. The figure for A20C U31C A65G is 0.41; for A20G G30A G63A A64G U69G it is 0.05; for A20G U25C U43C U49A it is 0.23. The figure for A20G A35G U41C U49C is 0.21.

As for A20G U25A A28G U69A U78C, the self-cleavage came to 0.04.

For A20G A47G U54C U74A A77G, the self-cleavage was 1.03. As for A20G C50G U54A, the self-cleavage amounted to 0.76. With A20G A28U A45G, the self-cleavage was 0.6.

A20G C23U U25A U26C U67C: the self-cleavage was 0.1.

Turning to A20C U48C U54C, the self-cleavage stood at 0.15. The figure for A20G U25C U31C A64G is 0.27; for A18U U51C U72C U80G it is 0.17; for A20G A47G A64G it is 0.54.

On to G19A U26C C27G U48C, for which the self-cleavage came to 0.2. The same measure for A20C U26A U41C U60A U67C: 0.07; for A20G U51C U54C U72A U80A: 0.38; for A18U U72A U74A: 0.13. The figure for A20G A28G U58A U69A is 0.08. The same measure for A20G A21G A35U A45G: 0.18. On to A20C A47G A57G U80C, for which the self-cleavage was 0.06. In the case of A18U U43G U51A U54C U60C A64G, the self-cleavage turned out to be 0.08. Take G19U C37U U60C A65G U67C: the self-cleavage worked out at 0.08. As to G19A U31G U49A U51A U67C, the self-cleavage was determined as 0.06. The same measure for A20G A28G C29A U31G A47G: 0.03; for A20G C38U U43A G70A U72C: 0.06.

In the case of A20G U26C U48C U49C, the self-cleavage came to 0.49. Turning to A20G U26A A45G U51C U58C C71G, the self-cleavage turned out to be 0.05. The same measure for A20G A28C U31A G52A G63A U80C: 0.1. In the case of A18U U58A A64G U72A, the self-cleavage was 0.12. With A20G U31C C44A U51A U80C, the self-cleavage was 0.09. As to A20G C40A U72A, the self-cleavage was 0.21. Regarding A20G U41C A64U, the self-cleavage is 0.38.

With A20G U25C C32G A45G A64U U78C, the self-cleavage amounted to 0.08.

In the case of A20G U48C A57G, the self-cleavage amounted to 0.93.

For A20G C29A A45G G55U, the self-cleavage amounted to 0.14.

Consider A20G U25A C34U U54C, for which the self-cleavage was 0.04. The same measure for G19A C27A U31C U41C U43C: 0.17; for G19C G30U U51A A64G U80C: 0.05. In the case of A20G U25C A64G U66C, the self-cleavage stood at 0.26. For the variant A20G C32G U54C, the self-cleavage is 0.09.
